Sequences and labels used below:
B1: PhoQ; a variant is named by its letters at X, in order, P23837 (parent)
chain: MKKLLRLFFPLSLRVRFLLATAAVVLVLSLAYGMVALIGYSVSFDKTTFRLLRGESNLFYTLAKWENNKLHVELPENIDKQSPTMTLIYDENGQLLWAQRDVPWLMKMIQPDWLKSNGFHEIEADVNDTSLLLSGDHSIQQQLQEVREDDDDAEMTHSVAVNVYPATSRMPKLTIVVVDTIPVELKSSYMVWSWFIYVLSANLLLVIPLLWVAAWWSLRPIEALAKEVRELEEHNRELLNPATTRELTSLVRNLNRLLKSERERYDKYRTTLTDLTHSLKTPLXXLQXXLRSLRSEKMSVSDAEPVMLEQISRISQQIGYYLHRASMRGGTLLSRELHPVAPLLDNLTSALNKVYQRKGVNISLDISPEISFVGEQNDFVEVMGNVLDNACKYCLEFVEISARQTDEHLYIVVEDDGPGIPLSKREVIFDRGQRVDTLRPGQGVGLAVAREITEQYEGKIVAGESMLGGARMEVIFGRQHSAPKDE

Some of the results follow.

Variants of B1 are the subject of the assay. As to the kind of experiment: enrichment ratio after two sorts for PhoP signalling (ratio (wild type AVST 3.29)); higher = more functional. The following applies: with PhoP (E. coli).
As for IHLK, the enrichment ratio was no more than 0.25.

On to HGSY, for which the enrichment ratio was no more than 0.25.

For IHSY, the enrichment ratio is no more than 0.25.

With LMEA, the enrichment ratio is no more than 0.25.

In the case of DFIS, the enrichment ratio is no more than 0.25.

As for NPIK, the enrichment ratio is no more than 0.25.

In the case of PAFY, the enrichment ratio is no more than 0.25.

With RGRY, the enrichment ratio is no more than 0.25.

Consider PTRD, for which the enrichment ratio is no more than 0.25.

Regarding SQHF, the enrichment ratio is no more than 0.25.

CSLL: the enrichment ratio is no more than 0.25.

Regarding FDPD, the enrichment ratio was no more than 0.25.

As for KDCK, the enrichment ratio is no more than 0.25.

Turning to SQND, the enrichment ratio was no more than 0.25.

For the variant QCGM, the enrichment ratio was 9.92.

As for NRKF, the enrichment ratio is no more than 0.25.

For PSIQ, the enrichment ratio is no more than 0.25.

As to YAGF, the enrichment ratio is no more than 0.25.

As for DHDP, the enrichment ratio is no more than 0.25.

In the case of AKSH, the enrichment ratio was 7.58.

Turning to KNFW, the enrichment ratio is no more than 0.25.

For ASHF, the enrichment ratio was no more than 0.25.

For PKAM, the enrichment ratio was no more than 0.25.

For the variant VYWQ, the enrichment ratio was no more than 0.25.

As for SNDA, the enrichment ratio was no more than 0.25.

As to WMPY, the enrichment ratio was no more than 0.25.

With QGEI, the enrichment ratio is no more than 0.25.

Turning to NMRG, the enrichment ratio was no more than 0.25.

In the case of HKCW, the enrichment ratio is no more than 0.25.

Take MSPQ: the enrichment ratio is no more than 0.25.

DQFP: the enrichment ratio was no more than 0.25.

YKMA: the enrichment ratio was no more than 0.25.

On to GFDN, for which the enrichment ratio was no more than 0.25.

Turning to SAPR, the enrichment ratio is no more than 0.25.

NVTP: the enrichment ratio is no more than 0.25.

Regarding PSFF, the enrichment ratio was no more than 0.25.

As to FNGM, the enrichment ratio is no more than 0.25.

Regarding VVDK, the enrichment ratio was no more than 0.25.

On to NFPF, for which the enrichment ratio is no more than 0.25.

Regarding NDIV, the enrichment ratio was no more than 0.25.

QSCV: the enrichment ratio was 0.43.

With FIPG, the enrichment ratio is no more than 0.25.

For the variant HHPF, the enrichment ratio is no more than 0.25.

Turning to VPHE, the enrichment ratio was no more than 0.25.

As for WFHK, the enrichment ratio is no more than 0.25.

Turning to HPFR, the enrichment ratio is no more than 0.25.

In the case of GNPF, the enrichment ratio was no more than 0.25.

With ERVC, the enrichment ratio is no more than 0.25.

For ASWG, the enrichment ratio is no more than 0.25.

On to IWVS, for which the enrichment ratio was no more than 0.25.

RWGG: the enrichment ratio was no more than 0.25.

IPQV: the enrichment ratio was no more than 0.25.

Regarding FAVG, the enrichment ratio was no more than 0.25.

In the case of FWNV, the enrichment ratio is no more than 0.25.

On to GFPA, for which the enrichment ratio is no more than 0.25.

With QTVW, the enrichment ratio is no more than 0.25.

Take TLPD: the enrichment ratio is no more than 0.25.

For the variant PRQE, the enrichment ratio is no more than 0.25.

Regarding KNIA, the enrichment ratio was no more than 0.25.

In the case of EEMT, the enrichment ratio was no more than 0.25.

Regarding MELK, the enrichment ratio is no more than 0.25.

DHDY: the enrichment ratio is no more than 0.25.

For WNLS, the enrichment ratio is no more than 0.25.

For FFPH, the enrichment ratio was no more than 0.25.

For the variant NMLM, the enrichment ratio is no more than 0.25.

In the case of NNPA, the enrichment ratio was no more than 0.25.

Take MFLI: the enrichment ratio was no more than 0.25.

On to EIPT, for which the enrichment ratio was no more than 0.25.

For the variant TMRD, the enrichment ratio is no more than 0.25.

PACR: the enrichment ratio was no more than 0.25.

Regarding RTAM, the enrichment ratio is no more than 0.25.

Regarding FHGQ, the enrichment ratio is no more than 0.25.

GIAT: the enrichment ratio was no more than 0.25.

Turning to DRCR, the enrichment ratio was no more than 0.25.

Regarding FHIF, the enrichment ratio was no more than 0.25.

Consider VDST, for which the enrichment ratio was no more than 0.25.

For VLIK, the enrichment ratio is no more than 0.25.

For GNHA, the enrichment ratio was no more than 0.25.

Take GSNH: the enrichment ratio was no more than 0.25.

As for PVNN, the enrichment ratio is no more than 0.25.

With DRAF, the enrichment ratio is no more than 0.25.

As to FGII, the enrichment ratio amounted to 0.857.

Take MYVE: the enrichment ratio was no more than 0.25.

On to TSCT, for which the enrichment ratio was found to be 18.9.

As to VDVM, the enrichment ratio was no more than 0.25.

In the case of RGTL, the enrichment ratio is no more than 0.25.

On to DWQV, for which the enrichment ratio was no more than 0.25.

For SARH, the enrichment ratio was no more than 0.25.

As to FPRM, the enrichment ratio is no more than 0.25.

For the variant FNQY, the enrichment ratio is no more than 0.25.

Take AAAR: the enrichment ratio was no more than 0.25.

On to LEHL, for which the enrichment ratio was no more than 0.25.

MHEA: the enrichment ratio was no more than 0.25.

Turning to VAYG, the enrichment ratio is no more than 0.25.

For the variant SITH, the enrichment ratio worked out at 7.37.

With LYGG, the enrichment ratio was no more than 0.25.

For the variant CSTP, the enrichment ratio was no more than 0.25.

For the variant HRTP, the enrichment ratio was no more than 0.25.

For LEPD, the enrichment ratio was no more than 0.25.

SYEG: the enrichment ratio was no more than 0.25.

For VNVQ, the enrichment ratio is no more than 0.25.

For MHTR, the enrichment ratio was no more than 0.25.

In the case of SFRS, the enrichment ratio is no more than 0.25.

For PIMV, the enrichment ratio is no more than 0.25.

Consider NENQ, for which the enrichment ratio was no more than 0.25.

On to HHME, for which the enrichment ratio was no more than 0.25.

In the case of IMYE, the enrichment ratio is no more than 0.25.

Consider VKWQ, for which the enrichment ratio is no more than 0.25.

As to SNTI, the enrichment ratio turned out to be 10.1.

For the variant THSD, the enrichment ratio was no more than 0.25.

Regarding LEES, the enrichment ratio is no more than 0.25.

For the variant VDDL, the enrichment ratio is no more than 0.25.

On to MRLA, for which the enrichment ratio is no more than 0.25.

Take PFTL: the enrichment ratio is no more than 0.25.

Regarding HIKF, the enrichment ratio is no more than 0.25.

As to SAMM, the enrichment ratio was 12.7.

Take FYKN: the enrichment ratio was no more than 0.25.

Consider RGGA, for which the enrichment ratio was no more than 0.25.

For WAGK, the enrichment ratio is no more than 0.25.

Consider RPFV, for which the enrichment ratio is no more than 0.25.

With RKVH, the enrichment ratio was no more than 0.25.

On to GKDQ, for which the enrichment ratio was no more than 0.25.

On to VKDD, for which the enrichment ratio was no more than 0.25.

Take NCHS: the enrichment ratio was no more than 0.25.

Take PEQT: the enrichment ratio was no more than 0.25.

For VATK, the enrichment ratio was no more than 0.25.

In the case of WFSH, the enrichment ratio is no more than 0.25.

As to DLAM, the enrichment ratio is no more than 0.25.

For MITQ, the enrichment ratio is no more than 0.25.

For the variant QYVH, the enrichment ratio was no more than 0.25.

As for ITVR, the enrichment ratio stood at 0.267.

Regarding PPFI, the enrichment ratio was no more than 0.25.

With WWTK, the enrichment ratio is no more than 0.25.

As to WQNN, the enrichment ratio is no more than 0.25.

As for MNYP, the enrichment ratio was no more than 0.25.

For the variant WCPN, the enrichment ratio is no more than 0.25.

As to VWRW, the enrichment ratio was no more than 0.25.

On to TYQK, for which the enrichment ratio was no more than 0.25.

Regarding TMAI, the enrichment ratio amounted to 8.73.

Consider PVRT, for which the enrichment ratio was no more than 0.25.

As to EINF, the enrichment ratio was no more than 0.25.

With LSVY, the enrichment ratio is no more than 0.25.

On to PHDV, for which the enrichment ratio is no more than 0.25.

Turning to RVCW, the enrichment ratio was no more than 0.25.

For the variant IFLS, the enrichment ratio was no more than 0.25.

For the variant IVRF, the enrichment ratio is no more than 0.25.

As for NMDY, the enrichment ratio was no more than 0.25.

Consider RRCM, for which the enrichment ratio was no more than 0.25.

Turning to DDFV, the enrichment ratio was no more than 0.25.

Turning to MRHT, the enrichment ratio came to 0.477.

Turning to DLPW, the enrichment ratio was no more than 0.25.

APRN: the enrichment ratio was no more than 0.25.

Consider DLHV, for which the enrichment ratio is no more than 0.25.

Regarding FNFA, the enrichment ratio was no more than 0.25.

As to LEFM, the enrichment ratio stood at 5.19.

For the variant YVWV, the enrichment ratio is no more than 0.25.

On to FIEW, for which the enrichment ratio is no more than 0.25.

As for WAPE, the enrichment ratio was no more than 0.25.

With ICWH, the enrichment ratio is no more than 0.25.

With KLKC, the enrichment ratio is no more than 0.25.

In the case of TERY, the enrichment ratio is no more than 0.25.

As to VVER, the enrichment ratio was no more than 0.25.

In the case of FDQI, the enrichment ratio was no more than 0.25.

Turning to ELPH, the enrichment ratio is no more than 0.25.

DGGF: the enrichment ratio was no more than 0.25.

Turning to LAES, the enrichment ratio is no more than 0.25.

Consider FSEW, for which the enrichment ratio was no more than 0.25.

Turning to TIVA, the enrichment ratio was no more than 0.25.

Turning to RDHA, the enrichment ratio was no more than 0.25.

Turning to PCED, the enrichment ratio is no more than 0.25.

As to QCLR, the enrichment ratio was no more than 0.25.

On to SDLR, for which the enrichment ratio was determined as 0.328.

In the case of SPVY, the enrichment ratio was no more than 0.25.

As to RFDP, the enrichment ratio was no more than 0.25.

On to PLTM, for which the enrichment ratio was no more than 0.25.

For MDMA, the enrichment ratio is no more than 0.25.

As for IEMD, the enrichment ratio is no more than 0.25.

As to YKNL, the enrichment ratio is no more than 0.25.

As to NSDP, the enrichment ratio was no more than 0.25.

Regarding GEQW, the enrichment ratio is no more than 0.25.

For WRTA, the enrichment ratio is no more than 0.25.

Regarding MRRI, the enrichment ratio is no more than 0.25.

On to LKMW, for which the enrichment ratio is no more than 0.25.

GFQG: the enrichment ratio is no more than 0.25.

On to EHMW, for which the enrichment ratio is no more than 0.25.

On to DDHH, for which the enrichment ratio is no more than 0.25.

ACLC: the enrichment ratio worked out at 12.2.

With KIGR, the enrichment ratio was no more than 0.25.

ATVK: the enrichment ratio is no more than 0.25.

Take HAPC: the enrichment ratio was no more than 0.25.

FDCC: the enrichment ratio was no more than 0.25.

With RPLT, the enrichment ratio is no more than 0.25.

As for DQAM, the enrichment ratio is no more than 0.25.

VFKK: the enrichment ratio was no more than 0.25.

Take PHEL: the enrichment ratio is no more than 0.25.

The record behind these values is a collection of fitness landscapes (doi:10.1126/science.1257360).
